Data taken from PubChem BioAssay AID686970 (National Center for Advancing Translational Sciences (NCATS), 2013).
Among all 360,000 compounds or so, about 6,000 (1.7%) were called active. This list was built around the results that the source calls inconclusive (neither active nor inactive); the mix of calls is not that of the screen. Calls follow the shape of the dose curve; as a rule, active = well fitted cell-killing curve with a large enough effect; inconclusive = small, poorly fitted or top-dose-only effect, or effect the other way; inactive = flat fitted curve, though single readings scatter. No potency is given beside an inconclusive call; the fits are too rough.

Assay: qHTS for induction of synthetic lethality in tumor cells producing 2HG: qHTS for the HT-1080-NT fibrosarcoma cell line;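 also: NT is the 2HG producing partner of a matched IDH1 knockdown line; nearly all actives have a fitted effect of over 55% in size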;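 as to activity, negative = less viability: 0% = DMSO-treated cells and -100% = media-only wells without cells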
Settings: HT-1080-NT fibrosarcoma viability, CellTiter-Glo ATP luminescence, 48 h; activity, negative = less viability: at 46.1 µM (top of the series) unless noted
Method in brief: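 Viability of the 2HG-overproducing fibrosarcoma line after 48 hours of compound exposure at 37 degrees C was determined by luminescence with CellTiter-Glo, and concentration-effect curves were then fitted and categorized.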
Potency is read from the fitted curve at half-maximal effect; tags tell the direction and shape of the fitted curve.

SMILES	Potency	activity, negative = less viability
COC(=O)[C@@H](NC(=O)NC1CCCc2ccccc21)C(C)C (some centres not stated)	inconclusive [cytotoxic, single point]	–
c1ccc2c(c1)CCN(C1=Nc3cccc4cccc1c34)C2	inconclusive [cytotoxic, single point]	–
CCc1ccc(OC2(C)CCN(Cc3ccc(SC)cc3)C2)cc1 (configuration not stated)	inconclusive [cytotoxic, single point]	–
CCCSC1=C(C#N)C(c2ccc(OC)cc2)C2=C(CC(C)(C)CC2=O)N1 (configuration not stated)	inconclusive [cytotoxic, partial curve]	–
COC(=O)c1sc(N)c(C(=O)OC)c1COC(=O)[C@@H](NS(=O)(=O)c1cccc(Cl)c1)C(C)C	inconclusive [cytotoxic, single point]	–
COc1cccc(NC(=O)Cn2nnc(C(=O)NCc3cccs3)c2N)c1	inconclusive [cytotoxic, single point]	–
O=C1NC(=Nc2cccc(O)c2)S/C1=C\c1cccc([N+](=O)[O-])c1	inconclusive [cytotoxic, single point]	–
Cc1nc(Nc2ccc(O)cc2)c2c3c(sc2n1)CCCC3	inconclusive [cytotoxic, single point]	–
CCN(CC)c1ccc2nc3ccccc3[n+](CC)c2c1	active: 25.9 µM	–
CC[C@]12c3[nH]c4cc(-c5ccco5)ccc4c3CCN1C(=O)[C@@H](CC(=O)NC/C=C(\C)CCC=C(C)C)C[C@@H]2C(=O)N1CCN(C(=O)C2CC2)CC1	inconclusive [cytotoxic, single point]	–
CCN(CC)CCNc1nc2cc(OC)c(OC)cc2c2nc(-c3ccccc3)nn12	inactive	–
Cc1cc(C)c2c(n1)sc1c(N3CCCCC3)ncnc12	inactive	–
Cc1ccc(NC(=O)c2ccc3nsnc3c2)c(C)c1	inactive	–
CCCS(=O)(=O)c1nc(S(=O)(=O)c2ccc(C)cc2)c(N2CCN(C)CC2)s1	inactive	–
FC(F)(F)c1ccccc1Cc1c(-c2cccc(Br)c2)nc2ccc(Cl)cn12	inactive	–
CCCCC1(O)CC(C(F)(F)F)=NN1C(=O)COc1ccccc1 (configuration not stated)	inactive	–
COc1ccc(CCNS(=O)(=O)c2cccc3cccnc23)cc1OC	inactive	–
COc1cccc(C(C)NC(=O)Nc2cccc(C(F)(F)F)c2)c1 (configuration not stated)	inconclusive [cytotoxic, single point]	–
FC(F)Oc1ccccc1C1CC(c2ccc(Br)s2)Nc2ncnn21 (configuration not stated)	inconclusive [cytotoxic, single point]	–
COc1ccc(C2CC(c3cccc(Br)c3)=NN2c2ccc(S(N)(=O)=O)cc2)cc1 (configuration not stated)	inconclusive [cytotoxic, single point]	–
COc1ccccc1-n1c(SCC(=O)Nc2cc(C)on2)nc2c([nH]c3ccccc32)c1=O	inactive	–
Cc1cccc(/C=N\Nc2nnc(-c3ccccc3)c(=O)[nH]2)c1	inconclusive [cytotoxic, single point]	–
CCc1nc2ccc(C(=O)NCCCN3CCCC3=O)cn2c1N(C)Cc1ccc(OC)cc1	inactive	–
O=C(Nc1ccc(-c2csc(Nc3ccccc3)n2)cc1)c1cccc(C(F)(F)F)c1	inconclusive [cytotoxic, partial curve]	–

SMILES	Potency	activity, negative = less viability
CN(C)S(=O)(=O)c1ccc(C(=O)N2CCN(S(=O)(=O)c3ccc4c(c3)OCCO4)CC2)cc1	inactive	–
COc1ccc(CN2CCC3CC2c2cc(-c4cccc(C)c4)ccc23)cc1 (configuration not stated)	inactive	–
Oc1[nH]c2ccc(Br)cc2c1N=NC(=S)N1CCOCC1	inconclusive [cytotoxic, partial curve, poor fit]	–
CCc1c(C2(O)CCCCC2)[nH]c2ccc(C(F)(F)F)cc12	inconclusive [cytotoxic, single point]	–
O=C(NN=Cc1c(O)ccc2ccccc12)c1ccncc1	–	inconclusive: -24.2% [cytotoxic]
CCN(CC)C(=S)NC(=O)c1cccnc1	inactive	–
Cc1cc(Cl)ccc1NC(=S)NCc1ccco1	inactive	–
Cc1ccc(SCc2ccc(C(=O)Nc3cc([N+](=O)[O-])ccc3C)cc2)cc1	inconclusive [cytotoxic, single point]	–
CC(=O)c1ccc(Nc2cc(C)nc3c(C)cccc23)cc1	active: 5.17 µM	–
COC(=O)[C@]12CCCCC=C1N(Cc1cccc3ccccc13)C(=O)[C@H](CC(=O)N1CCCC1)C2	inconclusive [cytotoxic, single point]	–
CC1CCc2c(sc(Nc3nc4c(F)cccc4s3)c2C(N)=O)C1 (configuration not stated)	inconclusive [cytotoxic, single point]	–
CC(C)NC(=O)c1ccccc1NC(=O)Cc1ccc(Cl)cc1	inconclusive [cytotoxic, full curve]	–
O=C(NNC(=O)c1ccc(NC(=O)c2ccccc2)cc1)c1ccccc1	inconclusive [cytotoxic, partial curve]	–
CC(C)(C)c1ccc(C(O)c2ncc(-c3ccc(F)cc3)[nH]2)cc1 (configuration not stated)	inconclusive [cytotoxic, single point]	–
Cn1cc(C(=O)c2ccc(Cl)cc2Cl)cc1C(=O)N/N=C(\N)COc1cccc(C(F)(F)F)c1	inconclusive [cytotoxic, single point]	–
CCCCn1nnnc1C(c1cc2ccccc2o1)N1CCCN(C(=O)OC(C)(C)C)CC1 (configuration not stated)	inconclusive [cytotoxic, single point]	–
CN(C)c1cccc(NC(=O)C2Cc3c(-c4ccc(Cl)cc4)ccnc3O2)c1 (configuration not stated)	inconclusive [cytotoxic, single point]	–
CCC(C)(C)C1CCC2(CC1)NC(=O)N(CC(=O)N1CCN(C(=O)c3ccco3)CC1)C2=O (configuration not stated)	inactive	–
Cc1ccc(-c2ccc(/C=N\NC(=O)C3C(=O)NCC3c3ccccc3)o2)cc1Cl (configuration not stated)	inconclusive [cytotoxic, single point]	–
CCCN=C(N)/C(C(=O)OCC)=C(\O)c1ccc(OC)cc1	inactive	–
CN(C)c1ccc(C=NNC(=O)c2cccc3ccccc23)c(Cl)c1	inconclusive [cytotoxic, partial curve, poor fit]	–
C/C(CCc1ccccc1)=N\NC(=O)C(=O)Nc1cccc(Cl)c1	inactive	–
O=C(NN=C1c2ccccc2-c2ccccc21)c1ccccc1Br	inconclusive [cytotoxic, single point]	–
COc1cccc(-c2sc3ccc(OC)cc3c2-c2ccc(OCCN(C)C)cc2)c1	inconclusive [cytotoxic, single point]	–

SMILES	Potency	activity, negative = less viability
COc1cc(C(=O)OCC(=O)NCCCc2ccccc2)ccc1OCC(C)C	inactive	–
Cc1cc(C)n(-c2nc(Nc3ccccc3C(F)(F)F)nc(-n3nc(C)cc3C)n2)n1	active: 9.2 µM	–
Cc1ccccc1Nc1nc(N)nc(COC(=O)CCNS(=O)(=O)c2ccccc2)n1	inactive	–
CN(C)S(=O)(=O)c1cccc(NC(=O)CN2C(=O)C3C4C=CC(C4)C3C2=O)c1 (configuration not stated)	inactive	–
COc1ccc(CN(C)C(=O)CSc2nnc(C3CC3)n2C2CC2)cc1	inactive	–
Nn1c(SCc2ccc(Br)cc2)nnc1-c1ccncc1	inconclusive [cytotoxic, single point]	–
CCN(CC)C(=O)COc1coc(CN2CCN(c3ccccc3)CC2)cc1=O	inactive	–
Cc1cccc(NS(=O)(=O)c2ccc(C)c(C(=O)NNC(=O)c3csc(N4CCOCC4)n3)c2)c1	inactive	–
COc1ccc2c(c1)c(=O)oc1c(C)c(OC(C)C(=O)N[C@@H](Cc3c[nH]c4ccc(O)cc34)C(=O)O)ccc12 (some centres not stated)	inactive	–
Cc1ccc(S(=O)(=O)Oc2cccc(/C=N/Nc3ccc(C(=O)O)cc3)c2)cc1	inactive	–
Cc1ccc(N(CC(=O)NCCc2ccc(Cl)cc2)S(=O)(=O)c2c(C)noc2C)cc1	inactive	–
COc1ccc(/C=C2\Sc3ccc(C(=O)NCC4CCCO4)cc3N(C)C2=O)cc1 (configuration not stated)	inconclusive [cytotoxic, single point]	–
COC(=O)CC1(C(=O)OC)Oc2ccc(Br)cc2C(=O)N1c1cccc(Cl)c1Cl (configuration not stated)	active: 20.6 µM	–
COc1cccc(-c2sc3ccccc3c2-c2ccc(OCCN3CCCC3)cc2)c1	inconclusive [cytotoxic, single point]	–
O=[N+]([O-])c1cccc(CN2CCC(Cc3ccccc3)CC2)c1	inactive	–
COc1ccc(Nc2ccc3c(c2)=NC2(CCCCC2)[N+]=3[O-])cc1	inconclusive [cytotoxic, single point]	–
Cc1ccc(NC(=O)CSc2ccccc2)cc1S(=O)(=O)N1CCCCC1	inactive	–
O=C1c2ccccc2-c2c1nc1c([n+]2[O-])CCCC1	inactive	–
Cc1cc(C)n(CCNC(=O)[C@H]2O[C@@H](n3ccc(=O)[nH]c3=O)[C@H](O)[C@@H]2O)n1	inactive	–
CN(Cc1ccc(F)cc1)C(=O)c1cccc(S(=O)(=O)N2CCN(c3ccc(F)cc3)CC2)c1	inconclusive [cytotoxic, single point]	–
O=C1c2ccccc2NC(c2ccc(Cl)cc2Cl)N1Cc1ccccc1 (configuration not stated)	inconclusive [cytotoxic, partial curve]	–
COc1ccc(OCCN2CCCC2)cc1Nc1nnc(Cl)c(Nc2ccccc2S(C)(=O)=O)n1	inconclusive [cytotoxic, partial curve]	–
CC(C)c1ccccc1NC(=O)Nc1nc(C(N)Cc2ccc(C(F)(F)F)cc2)cs1 (configuration not stated)	active: 5.8 µM	–
Cc1ncc(CO)c2c1Oc1nc(-c3ccccc3F)nc(SCC(=O)N(C)c3ccccc3)c1C2	inconclusive [cytotoxic, single point]	–
